Here are results for seven substances from article PMC12115464.

By UniProt entry, the sequences of proteins in these tests, tags left out.
UniProt O00629: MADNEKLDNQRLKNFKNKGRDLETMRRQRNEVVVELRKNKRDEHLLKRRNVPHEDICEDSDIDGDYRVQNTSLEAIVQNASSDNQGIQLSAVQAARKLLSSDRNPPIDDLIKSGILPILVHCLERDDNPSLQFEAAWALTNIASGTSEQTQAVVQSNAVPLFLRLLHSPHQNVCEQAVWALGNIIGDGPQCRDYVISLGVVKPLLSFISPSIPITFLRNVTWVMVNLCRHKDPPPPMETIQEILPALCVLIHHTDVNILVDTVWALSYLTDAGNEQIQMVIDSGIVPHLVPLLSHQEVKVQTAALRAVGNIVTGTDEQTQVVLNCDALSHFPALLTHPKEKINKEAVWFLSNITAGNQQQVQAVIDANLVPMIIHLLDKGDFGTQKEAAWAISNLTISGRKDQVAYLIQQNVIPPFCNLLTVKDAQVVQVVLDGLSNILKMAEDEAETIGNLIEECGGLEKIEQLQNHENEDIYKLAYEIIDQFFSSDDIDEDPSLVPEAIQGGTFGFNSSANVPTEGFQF
UniProt P52294: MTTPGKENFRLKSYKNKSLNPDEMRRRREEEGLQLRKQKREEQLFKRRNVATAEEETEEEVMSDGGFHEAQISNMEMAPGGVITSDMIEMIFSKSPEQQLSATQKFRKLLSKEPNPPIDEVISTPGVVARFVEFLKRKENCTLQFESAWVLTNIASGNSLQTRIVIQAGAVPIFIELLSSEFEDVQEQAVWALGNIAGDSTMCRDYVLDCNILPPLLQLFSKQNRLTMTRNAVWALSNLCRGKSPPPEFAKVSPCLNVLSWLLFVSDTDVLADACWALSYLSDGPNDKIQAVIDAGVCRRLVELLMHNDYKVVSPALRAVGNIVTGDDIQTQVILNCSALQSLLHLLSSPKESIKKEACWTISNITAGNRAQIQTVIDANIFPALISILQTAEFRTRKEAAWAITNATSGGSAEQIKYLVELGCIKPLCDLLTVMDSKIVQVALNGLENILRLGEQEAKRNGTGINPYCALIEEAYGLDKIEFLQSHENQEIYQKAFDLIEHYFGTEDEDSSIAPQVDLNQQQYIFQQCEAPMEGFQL
UniProt P15682: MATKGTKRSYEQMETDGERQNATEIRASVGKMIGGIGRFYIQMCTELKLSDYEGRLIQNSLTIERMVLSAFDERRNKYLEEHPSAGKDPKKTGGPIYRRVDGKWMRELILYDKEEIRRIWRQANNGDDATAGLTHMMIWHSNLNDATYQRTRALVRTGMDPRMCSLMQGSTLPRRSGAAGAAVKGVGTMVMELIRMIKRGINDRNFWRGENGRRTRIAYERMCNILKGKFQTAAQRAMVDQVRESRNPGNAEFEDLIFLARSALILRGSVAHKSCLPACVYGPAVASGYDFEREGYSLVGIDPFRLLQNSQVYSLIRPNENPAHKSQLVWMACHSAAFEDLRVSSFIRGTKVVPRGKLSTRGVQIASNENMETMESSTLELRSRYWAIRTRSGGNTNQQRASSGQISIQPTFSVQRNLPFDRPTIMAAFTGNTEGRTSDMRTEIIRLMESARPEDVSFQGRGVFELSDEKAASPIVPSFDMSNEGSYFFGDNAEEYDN
UniProt P03427: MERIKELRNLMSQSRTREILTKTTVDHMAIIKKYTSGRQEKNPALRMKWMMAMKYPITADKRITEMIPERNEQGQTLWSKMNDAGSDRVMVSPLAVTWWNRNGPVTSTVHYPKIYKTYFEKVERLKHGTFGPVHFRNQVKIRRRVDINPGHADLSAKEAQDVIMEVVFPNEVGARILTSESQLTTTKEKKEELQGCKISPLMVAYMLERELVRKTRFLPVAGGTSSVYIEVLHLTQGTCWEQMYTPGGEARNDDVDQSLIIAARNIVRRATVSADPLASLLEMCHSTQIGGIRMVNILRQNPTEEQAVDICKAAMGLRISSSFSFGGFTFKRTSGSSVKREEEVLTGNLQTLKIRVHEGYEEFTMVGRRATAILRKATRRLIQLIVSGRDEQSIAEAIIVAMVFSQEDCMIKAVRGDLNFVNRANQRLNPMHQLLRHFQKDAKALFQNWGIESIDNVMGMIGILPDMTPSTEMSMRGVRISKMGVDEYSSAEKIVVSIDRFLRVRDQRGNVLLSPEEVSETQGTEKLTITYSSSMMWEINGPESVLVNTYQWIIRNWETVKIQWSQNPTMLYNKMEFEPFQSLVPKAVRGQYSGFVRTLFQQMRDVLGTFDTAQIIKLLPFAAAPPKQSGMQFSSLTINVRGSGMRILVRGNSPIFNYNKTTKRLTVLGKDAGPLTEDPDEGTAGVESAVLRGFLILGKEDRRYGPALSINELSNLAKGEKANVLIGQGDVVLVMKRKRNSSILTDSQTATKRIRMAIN
UniProt P03430: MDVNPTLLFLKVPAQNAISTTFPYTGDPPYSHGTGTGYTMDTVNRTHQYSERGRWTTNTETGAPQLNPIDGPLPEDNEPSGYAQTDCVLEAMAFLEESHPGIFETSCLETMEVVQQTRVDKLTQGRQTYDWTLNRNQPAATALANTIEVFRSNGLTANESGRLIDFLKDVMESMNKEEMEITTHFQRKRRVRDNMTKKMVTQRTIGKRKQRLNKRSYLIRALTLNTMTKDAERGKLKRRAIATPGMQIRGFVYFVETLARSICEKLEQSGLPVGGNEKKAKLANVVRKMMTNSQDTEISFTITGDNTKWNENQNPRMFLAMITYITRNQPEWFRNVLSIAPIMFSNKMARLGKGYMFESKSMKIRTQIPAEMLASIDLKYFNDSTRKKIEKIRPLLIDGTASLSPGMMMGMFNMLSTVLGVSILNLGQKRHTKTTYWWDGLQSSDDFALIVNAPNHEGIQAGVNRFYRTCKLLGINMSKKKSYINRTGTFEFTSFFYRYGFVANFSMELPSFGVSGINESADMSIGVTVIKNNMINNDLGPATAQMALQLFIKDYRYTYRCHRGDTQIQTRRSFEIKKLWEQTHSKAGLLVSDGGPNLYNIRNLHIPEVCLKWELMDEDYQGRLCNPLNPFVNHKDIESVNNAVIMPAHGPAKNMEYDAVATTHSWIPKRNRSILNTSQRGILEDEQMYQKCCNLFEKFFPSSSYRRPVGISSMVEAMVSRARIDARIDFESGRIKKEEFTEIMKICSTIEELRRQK
UniProt P02538: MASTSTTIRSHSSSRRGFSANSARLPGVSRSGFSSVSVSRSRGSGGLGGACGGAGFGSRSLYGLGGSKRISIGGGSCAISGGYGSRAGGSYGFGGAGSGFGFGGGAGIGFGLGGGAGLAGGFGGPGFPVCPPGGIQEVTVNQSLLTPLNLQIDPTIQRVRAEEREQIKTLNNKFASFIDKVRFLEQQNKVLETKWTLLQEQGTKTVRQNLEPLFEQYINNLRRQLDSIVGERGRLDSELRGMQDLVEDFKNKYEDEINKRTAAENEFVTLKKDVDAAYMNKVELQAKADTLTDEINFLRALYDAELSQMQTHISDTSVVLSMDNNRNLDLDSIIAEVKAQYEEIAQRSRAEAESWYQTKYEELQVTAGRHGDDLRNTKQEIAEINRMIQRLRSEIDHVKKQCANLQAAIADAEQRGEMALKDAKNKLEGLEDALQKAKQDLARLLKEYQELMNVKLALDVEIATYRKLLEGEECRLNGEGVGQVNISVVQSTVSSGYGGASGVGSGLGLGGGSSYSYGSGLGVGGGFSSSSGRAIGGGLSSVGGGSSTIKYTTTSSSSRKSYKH

Assay [1] concerns the target Flag-tagged importin α7 (UniProt O60684). Put plainly: co-IP; HEK293T transfected with Myc-KRT6A and Flag-tagged importin α1, α3, α5 or α7, individually or in combination; lysates immunoprecipitated with mouse anti-Flag mAb; blot with rabbit anti-Flag or anti-KRT6A pAb.
The target of assay [2] is Flag-tagged importin α3 (UniProt O00629). Described as above.
The target in assay [3] is Flag-tagged importin α5 (UniProt P52294). Described as above.
For assay [4], the target named is nucleoprotein (NP) of A/WSN/1933 (H1N1) virus, untagged, from pCAGGS (influenza A virus A/WSN/1933 (WSN, H1N1)) (UniProt P15682). Put plainly: co-IP.
Assay [5] concerns the target polymerase basic protein 2 (PB2) of A/WSN/1933 (H1N1) virus, untagged, from pCAGGS (influenza A virus A/WSN/1933 (WSN, H1N1)) (UniProt P03427). Put plainly: co-IP.
The target of assay [6] is polymerase basic protein 1 (PB1) of A/WSN/1933 (H1N1) virus, untagged, from pCAGGS (influenza A virus A/WSN/1933 (WSN, H1N1)) (UniProt P03430). The assay can be described thus: co-IP.
Assay [7] addresses Myc-tagged keratin 6A (KRT6A) (UniProt P02538). Put plainly: co-IP.
Assay [8] has as its target Flag-tagged importin α7 (UniProt O60684). The assay can be described thus: co-IP.
In assay [9] the target is Flag-tagged importin α3 (UniProt O00629). Put plainly: co-IP.
Assay [10] deals with Flag-tagged importin α5 (UniProt P52294). The assay can be described thus: co-IP.

Results are given in words; binding and its absence hold for the method and conditions named. Binding seen in cells or lysates may run through a third protein. Some results given as binding are weak or reduced against the parent protein; the word gives no strength.

On to “Myc-tagged keratin 6A (KRT6A) (from UniProt P02538 1-564)”, for which the binding result in assay [1] is recorded as “no binding”; in [2], “no binding”; in assay [3] it was “no binding”; in assay [4], “binds”; in [5], “binds”; in assay [6] it was “binds”.

With “nucleoprotein (NP) made in cells infected with WSN (H1N1) virus (from UniProt P15682 1-498)”, the binding result in [7] is listed as “binds”.

Turning to “polymerase basic protein 1 (PB1) of A/WSN/1933 (H1N1) virus, untagged, from pCAGGS (from UniProt P03430 1-757)”, in [7], the binding entry is “binds”.

For “polymerase basic protein 2 (PB2) made in cells infected with WSN (H1N1) virus (from UniProt P03427 1-759)”, in assay [7], the binding entry is on record as “binds”.

Take “nucleoprotein (NP) of A/WSN/1933 (H1N1) virus, untagged, from pCAGGS (from UniProt P15682 1-498)”: the binding entry in assay [8], in [7], in [9] and in [10] was “binds” in each case.

In the case of “polymerase basic protein 1 (PB1) made in cells infected with WSN (H1N1) virus (from UniProt P03430 1-757)”, in [7], the binding result is on record as “binds”.

Consider “polymerase basic protein 2 (PB2) of A/WSN/1933 (H1N1) virus, untagged, from pCAGGS (from UniProt P03427 1-759)”, for which, in assay [7], the binding result is on record as “binds”.
